Measurements: PubChem BioAssay AID1347073 (National Center for Advancing Translational Sciences (NCATS), 2019)
Screen size: about 45,000 compounds; about 200 (0.44%) were called active. Not shown: some 7% with an inconclusive outcome. Calls come from the whole dose curve; as a rule, active = well fitted activation curve with a large enough effect; inconclusive = small, poorly fitted or top-dose-only effect; inactive = no such curve, though single readings can be large or run the other way. The list shows a part of the results.

Experiment: qHTS of TDP-43 Inhibitors: NCGC Sytravon Library Screen; note: 0% is about no effect; nearly all actives have a fitted effect of over 55% in size
Conditions: yeast TDP-43 toxicity rescue, BacTiter-Glo growth, 24 h; series mostly up to 46.1 µM; growth rescue (activation): at the top concentration
How it was run: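 TDP-43-expressing yeast, pregrown in raffinose, seeded at OD600 0.02 in galactose medium with compound for 24 hr at 30 deg C. Growth read by BacTiter-Glo luminescence, so rescue of toxicity appears as activation.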

| SMILES | growth rescue (activation) |
| --- | --- |
| CCc1ccc(Nc2nnc(SC3CCOC3=O)s2)cc1 (centres undefined) | inactive: 6.15% |
| COC(=O)/C(=C/c1ccc(OC)cc1)NC(=O)c1ccco1 | inactive: 22.2% |
| O=C(Cc1ccccc1)NNC1CC(=O)N(c2ccc(Oc3ccccc3)cc2)C1=O (centres undefined) | inactive: -5.79% |
| CC(C)(C)NC(=O)NC(=O)CSc1nncs1 | inactive: 4.99% |
| NS(=O)(=O)c1ccc(NC(=O)CNC(=O)c2ccc3c(c2)OCO3)cc1 | inactive: 2.67% |
| O=C(Nc1ccc(S(=O)(=O)N2CCCC2)cc1)C1CCCCC1 | inactive: 1.2% |
| Cc1cc(Nc2ccc(O)cc2)n2c(nc3ccccc32)c1C#N | inactive: 8.72% |
| COCc1[nH][nH]c(=O)c1C=Nc1ccccc1 | inactive: 19.8% |
| CCCCN1C(=O)C(O)(c2c(C)[nH]c3ccccc23)c2cc(Br)ccc21 (centres undefined) | inactive: 0.377% |
| Cc1onc(-c2ccccc2Cl)c1C(=O)Nc1nc2ccc(S(C)(=O)=O)cc2s1 | inactive: 21.9% |
| O=[N+]([O-])c1ccc(N2CCN(C(=S)c3cccc([N+](=O)[O-])c3)CC2)cc1 | inactive: 32.8% |
| COc1ccc(S(=O)(=O)N2CCCCC2)cc1NC(=O)C1CC(=O)N(Cc2ccco2)C1 (centres undefined) | inactive: 6.63% |
| O=[N+]([O-])c1ccc(Nc2nc(NCCO)nc(N3CCCC3)n2)cc1 | inactive: 7.72% |
| COc1ccc(NC(=O)c2cc3c(=O)n(C)c4ccccc4c3n2C)cc1Cl | inactive: 1.31% |
| COc1ccccc1CN(C)C(=O)CSCC(=O)Nc1ccccc1F | inactive: 30.8% |
| CCOC(=O)C1(CCCc2ccccc2)CCN(C(=O)C2=C(C)OCCO2)CC1 | inactive: 10.2% |
| O=C(COC(=O)c1ccc(S(=O)(=O)NCc2ccco2)cc1)Nc1ccccc1 | inactive: 28.3% |
| CC(=O)Nc1ccc(CC(=O)NCCC(c2ccccc2)c2ccccc2)cc1 | inactive: 8.23% |
| CN=C1c2cc3cc(OC)ccc3n2CCN1Cc1ccccc1 | inactive: -9.99% |
| CC(C)NC(=O)CC(=O)N/N=C/c1cccs1 | inactive: -3.2% |
| NC(=O)C1CC(=O)N(c2ccc(OCC(=O)N3CCCC3)cc2)C1 (centres undefined) | inactive: 0.937% |
| O=C(c1ccco1)N1CCCC(c2nc3c(nnn3Cc3cccc(Cl)c3)c(=O)[nH]2)C1 (centres undefined) | inactive: 8.5% |
| Cc1cccc(C(=O)Nc2ccccc2SCC(=O)Nc2ccc(C)c(Cl)c2)c1 | inactive: 7.42% |
| CCn1c(SCC(=O)Nc2nccc(C)n2)nc2ccccc21 | inactive: -2.78% |
| O=C(C1CC1)N1N=C(c2ccncc2)CC1(O)C(F)(F)F (centres undefined) | inactive: -6.42% |
| Cc1nc(SCC(=O)Nc2cccc(S(=O)(=O)N3CCOCC3)c2)nc(C)c1C | inactive: -13.2% |
| Cc1ccc2c(c1)N(CCC(=O)NCCCN1CCCC1)C(=O)C(C)O2 (centres undefined) | inactive: 6.56% |
| CC(C)(O)C#Cc1ccc(C(=O)N2CCC(CCC(=O)NC3CC3)CC2)cc1 | inactive: 22.1% |
| Cc1ccc(CN2C(=O)COc3cc(NS(C)(=O)=O)ccc32)cc1 | inactive: -0.975% |
